This note sets out measurements from ChEMBL document CHEMBL4888484, “Replenishing the malaria drug discovery pipeline: Screening and hit evaluation of the MMV Hit Generation Library 1 (HGL1) against asexual blood stage Plasmodium falciparum ,using a nano luciferase reporter read-out” (2022).

The whole screen tested about 150,000 compounds, of which about 540 (0.36%) showed an effect of 50% or more. The list shows a part of the results.

The subject of the test is Plasmodium falciparum. Briefly: Primary screen in NF54 nanoGlo assay, in single point, at 2uM, 72h; a lower Z score goes with more inhibition. It counts as functional, Erythrocyte. As to conditions: timepoint 72 hour.
For `COc1ccc(C(=O)N2CCC[C@H](C(=O)Nc3ccc(C)cc3O)C2)c2ccccc12`, the “% Inhibition” value is -6% and the Z score came out at 0.72.

Turning to `Cc1nc(NC(=O)CCc2nc3cccnc3[nH]2)n[nH]1`, the “% Inhibition” value is on record as -16% and the Z score turned out to be 2.95.

Regarding `Cc1nc([C@@H]2CCCCCN2C(=O)Cc2ccc3c(c2)OCO3)no1`, the “% Inhibition” value is -2% and the Z score was determined as 0.43.

As to `CC[C@H](C)N(Cc1cc(NC(=O)COC)ccc1N(C)C)C(=O)CC(C)(C)C`, the “% Inhibition” value was -11% and the Z score is reported as 1.11.

`CC(NC(=O)CNC(=O)C1O[C@@H]2OC(C)(C)O[C@@H]2[C@H]2OC(C)(C)O[C@@H]12)C(=O)Nc1ccccc1` (some centres not stated): the “% Inhibition” value is reported as -8% and the Z score is 1.47.

On to `CCO[C@H]1COC[C@@H]1NC(=O)c1sc(OC)nc1C`, for which the “% Inhibition” value is -10% and the Z score was 2.01.

For `CN1CCC(CN(CCc2ccccc2)C(=O)c2ccc(=O)n(C)n2)CC1`, the “% Inhibition” value is -7% and the Z score is 0.83.

For the molecule `CN1CCN(c2nc3nccc(-c4ccc5ccccc5c4)c3c(=O)[nH]2)CC1`, the “% Inhibition” value is given as -17% and the Z score worked out at 2.96.

On to `O=C(Cn1nc2n(c1=O)C(=O)N(c1ccccc1)C2)NCc1cccnc1`, for which the “% Inhibition” value is reported as -1% and the Z score came to 0.19.

For `O=C(NCc1cc2c(cc1OC(F)F)OCO2)Nc1ccsc1Cl`, the “% Inhibition” value was 0% and the Z score was -0.07.

Take `Cc1noc(C)c1[C@@H](C)CC(=O)N1CCc2cccc(F)c21`: the “% Inhibition” value is reported as -14% and the Z score is on record as 1.57.

Turning to `CS(=O)(=O)N[C@H](c1nccs1)C1CC1`, the “% Inhibition” value turned out to be 31% and the Z score was -3.49.

In the case of `CCN1CCC(NC(=O)N(Cc2ccc(-c3ccccc3C)s2)C(C)C)CC1`, the “% Inhibition” value is -7% and the Z score was determined as 1.01.

Consider `CC1(C)CN(Cc2ccc(C#N)cc2Br)CC[S@@+]1[O-]`, for which the “% Inhibition” value was -4% and the Z score worked out at 0.36.

For `CCN1CCN(C(=O)CCN(CC(C)C)c2nc(-c3ccc(F)cc3)nc3cc(Cl)ccc23)CC1`, the “% Inhibition” value is given as 7% and the Z score is given as -0.81.

Take `CC(=O)c1cccc(NC(=O)Cn2c(C)cc(=O)n3nc(-c4ccccc4)nc23)c1`: the “% Inhibition” value is recorded as -4% and the Z score is 0.49.

For `Cc1nn(C)cc1-c1nn(Cc2ccc(F)cc2Cl)c(-c2cn(C)nc2C)c1Cl`, the “% Inhibition” value is recorded as 34% and the Z score is recorded as -3.87.

For `CN(C)C(=O)Nc1cccc(CNC(=O)c2cn(C)nc2-c2cnn(C)c2)c1`, the “% Inhibition” value is 8% and the Z score was -1.1.

On to `O=C(CC1CCCC1)NCc1ccc2c(c1)CCN2C(=O)c1ccccc1`, for which the “% Inhibition” value was found to be 6% and the Z score is listed as -1.09.

Turning to `CN(CC(=O)N1C[C@@H]2CC[C@H]1CN(C(=O)N(C)C)C2)Cc1ccccc1F`, the “% Inhibition” value was -14% and the Z score was found to be 1.5.

As to `Cc1ccn2c(NC(=O)CC3CC4CCC3O4)nnc2c1` (configuration not stated), the “% Inhibition” value is on record as 6% and the Z score is given as -1.

Consider `O=C1CCCCN1CC(=O)N1CCC[C@H](CCc2ccc(F)c(F)c2)C1`, for which the “% Inhibition” value was -19% and the Z score is 2.64.

With `COc1ccc(N2CCN(C(=O)Cn3cccc3-c3nc(-c4ccc5c(c4)OCO5)no3)CC2)cc1`, the “% Inhibition” value is recorded as -6% and the Z score is reported as 0.82.

On to `CCCN1CCC[C@H]1C(=O)NS(=O)(=O)c1ccc2c(c1)CCCC2`, for which the “% Inhibition” value was determined as 6% and the Z score is -0.58.

On to `Cc1ccn(CCC(=O)Nc2ccc(C)c(N(C)C)c2)n1`, for which the “% Inhibition” value was -5% and the Z score was 0.93.

On to `O=C(NC1CCCCCCC1)c1cccnc1O`, for which the “% Inhibition” value is -8% and the Z score came to 0.75.

On to `Cc1noc(C)c1S(=O)(=O)N(C)Cc1ncc(C(C)(C)C)o1`, for which the “% Inhibition” value is -3% and the Z score is on record as 0.38.

For the molecule `Cc1ccc(Nc2c(C(=O)NCc3ccc(F)cc3)cnc3c2c(C)nn3C)cc1`, the “% Inhibition” value is given as 36% and the Z score is on record as -4.03.

Regarding `Cc1ccc([C@@H](CC(=O)N2CCN(c3cccc(C(F)(F)F)c3)CC2)c2c[nH]c3ccccc23)cc1`, the “% Inhibition” value amounted to 2% and the Z score is recorded as -0.2.

Turning to `O=C(NCc1ccc(F)cc1)Nc1nc2c(s1)C(=O)NCCC2`, the “% Inhibition” value was -10% and the Z score was determined as 1.94.

On to `CCc1ccc([C@H]2NCCc3[nH]cnc32)nc1`, for which the “% Inhibition” value turned out to be 55% and the Z score is recorded as -5.21.

For the molecule `C=CCNCc1cc(Cl)ccc1OC`, the “% Inhibition” value was -9% and the Z score came to 1.42.

For the molecule `CC(C)Cn1cncc1CN(C)Cc1ccccn1`, the “% Inhibition” value is on record as -7% and the Z score is on record as 1.26.

For `CC(NC(=O)c1ccoc1)C1CC2CCC1C2` (configuration not stated), the “% Inhibition” value is -1% and the Z score came out at 0.16.

In the case of `Cc1ccc(CNC(=O)N[C@@H](C)Cc2ccc(C)s2)cn1`, the “% Inhibition” value is -8% and the Z score was found to be 1.57.

`Cc1nn(C)c(C)c1CNC(=O)[C@H]1CCCN(c2nnc3ccccn23)C1`: the “% Inhibition” value is -8% and the Z score came out at 0.9.

In the case of `CCn1c(=O)c(C(=O)CN2CCN(S(=O)(=O)c3ccccc3)CC2)c(N)n(Cc2ccccc2)c1=O`, the “% Inhibition” value is reported as -11% and the Z score is 2.13.

Regarding `CC(=O)c1ccc(OCc2nc(-c3ccoc3)no2)c(C)c1`, the “% Inhibition” value was -10% and the Z score is on record as 1.29.

As for `Cc1nc(C)c(-c2cc(C)c3c(C)nc(C)nc3n2)c(N)n1`, the “% Inhibition” value is given as -9% and the Z score is on record as 1.21.

As to `Cc1cnn(CCN[C@@H](C)c2nc(C3CC3)no2)c1`, the “% Inhibition” value is on record as -6% and the Z score worked out at 0.93.

Regarding `O=C(N[C@H]1CCN(C2CCCCC2)C1=O)c1cc2ccccc2[nH]1`, the “% Inhibition” value was determined as 4% and the Z score is on record as -0.56.
